# This is one part of the list.
# B1: SP16664D-bth-476-27-476 (Bacteroides thetaiotaomicron) (protein)
# chain: DDLEVGKNIDESAYSGIYENNAYLRDGKSNLVSKVVELHGETYATTVKMGLSKTPNTATSAKVKIDAAYLETYNKAHNTDFALYPQDLVTFANEGILTVNANTKSAEVEMTIRAGEGLQEDKTYAIPVAISDQSSDITIKDEDAKHCIYLVKDMRNAGDAYKGEGVMQGYLFFEVNDVNPLNTLSFQLENGKLLWDVVVLFAANINYDAEAGRPRVQCNPNVQYLLDNNETLLQPLRRRGVKVLLGLLGNHDITGLAQLSEQGAKDFAREVAQYCKAYNLDGVNYDDEYSNSPDLSNPSLTNPSTAAAARLCYETKQAMPDKLVTVFDWGQMYGVATVDGVDAKEWIDIVVANYGSAAYPIGQMTKKQCSGISMEFNLGGGGSLSASKAQSMIDGGYGWFMGFAPSPAKYGSVFSRLQGGGEVLYGSNVAAPTIFYKKNDPTPYKYPDDL
# Legend:
# Assay in all cases: glycan array binding signal (z-score within array); higher = stronger binding
# Settings in all cases: glycan notation: IUPAC condensed, linker removed
# [1] = target: Fuc(a1-2)[Gal(a1-4)]Gal(b1-4)GlcNAc
# How it was run: (§1)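 Columns mapping to the same glycan were averaged after glycan names were converted to IUPAC-condensed notation. The data come from 3228 arrays in the Consortium for Functional Glycomics database, limited to those with an available protein sequence. Binding is reported as a within-array Z-score averaged across arrays of one protein sequence and across linkers.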
# [2] = target: Fuc(a1-2)[GalNAc(a1-3)]Gal
# How it was run: as §1
# [3] = target: Fuc(a1-2)[GalNAc(a1-3)]Gal(b1-3)GalNAc(a1-3)[Fuc(a1-2)]Gal(b1-4)GlcNAc
# How it was run: as §1
# [4] = target: Fuc(a1-2)[GalNAc(a1-3)]Gal(b1-3)GalNAc(b1-3)Gal(a1-4)Gal(b1-4)Glc
# How it was run: as §1
# [5] = target: Fuc(a1-2)[GalNAc(a1-3)]Gal(b1-3)GlcNAc
# How it was run: as §1
# [6] = target: Fuc(a1-2)[GalNAc(a1-3)]Gal(b1-3)GlcNAc(b1-2)Man(a1-3)[Fuc(a1-2)[GalNAc(a1-3)]Gal(b1-3)GlcNAc(b1-2)Man(a1-6)]Man(b1-4)GlcNAc(b1-4)GlcNAc
# How it was run: as §1
# [7] = target: Fuc(a1-2)[GalNAc(a1-3)]Gal(b1-3)GlcNAc(b1-2)Man(a1-3)[Fuc(a1-2)[GalNAc(a1-3)]Gal(b1-3)GlcNAc(b1-2)Man(a1-6)]Man(b1-4)GlcNAc(b1-4)[Fuc(a1-6)]GlcNAc
# How it was run: as §1
# [8] = target: Fuc(a1-2)[GalNAc(a1-3)]Gal(b1-3)GlcNAc(b1-3)GalNAc
# How it was run: as §1
# [9] = target: Fuc(a1-2)[GalNAc(a1-3)]Gal(b1-3)GlcNAc(b1-6)GalNAc
# How it was run: as §1
# [10] = target: Fuc(a1-2)[GalNAc(a1-3)]Gal(b1-4)Glc
# How it was run: as §1
# [11] = target: Fuc(a1-2)[GalNAc(a1-3)]Gal(b1-4)GlcNAc
# How it was run: as §1
# [12] = target: Fuc(a1-2)[GalNAc(a1-3)]Gal(b1-4)GlcNAc(b1-2)Man
# How it was run: as §1
# [13] = target: Fuc(a1-2)[GalNAc(a1-3)]Gal(b1-4)GlcNAc(b1-2)Man(a1-3)[Fuc(a1-2)[GalNAc(a1-3)]Gal(b1-4)GlcNAc(b1-2)Man(a1-6)]Man(b1-4)GlcNAc(b1-4)GlcNAc
# How it was run: as §1
# [14] = target: Fuc(a1-2)[GalNAc(a1-3)]Gal(b1-4)GlcNAc(b1-2)Man(a1-3)[Fuc(a1-2)[GalNAc(a1-3)]Gal(b1-4)GlcNAc(b1-2)Man(a1-6)]Man(b1-4)GlcNAc(b1-4)[Fuc(a1-6)]GlcNAc
# How it was run: as §1
# [15] = target: Fuc(a1-2)[GalNAc(a1-3)]Gal(b1-4)GlcNAc(b1-3)Gal(b1-4)GlcNAc
# How it was run: as §1
# [16] = target: Fuc(a1-2)[GalNAc(a1-3)]Gal(b1-4)GlcNAc(b1-3)Gal(b1-4)GlcNAc(b1-3)Gal(b1-4)GlcNAc
# How it was run: as §1
# [17] = target: Fuc(a1-2)[GalNAc(a1-3)]Gal(b1-4)GlcNAc(b1-3)GalNAc
# How it was run: as §1
# [18] = target: Fuc(a1-2)[GalNAc(a1-3)]Gal(b1-4)GlcNAc(b1-3)[Fuc(a1-2)[GalNAc(a1-3)]Gal(b1-4)GlcNAc(b1-6)]GalNAc
# How it was run: as §1
# [19] = target: Fuc(a1-2)[GalNAc(a1-3)]Gal(b1-4)GlcNAc(b1-6)GalNAc
# How it was run: as §1
# [20] = target: Fuc(a1-2)[GalNAc(a1-3)]Gal(b1-4)[Fuc(a1-3)]GlcNAc
# How it was run: as §1
# [21] = target: Fuc(a1-2)[GalNAc(a1-3)]Gal(b1-4)[Fuc(a1-3)]GlcNAc(b1-3)GalNAc
# How it was run: as §1
# [22] = target: Fuc(a1-2)[GalNAc(a1-4)]Gal(b1-4)GlcNAc
# How it was run: as §1
# [23] = target: Fuc(a1-2)[GalNAc(b1-3)]Gal
# How it was run: as §1
# Fuc(a1-3)GlcNAc = target: Fuc(a1-3)GlcNAc
# How it was run: as §1
# [24] = target: Fuc(a1-3)[Gal(b1-4)]Glc6S
# How it was run: as §1
# [25] = target: Fuc(a1-3)[Gal(b1-4)]GlcNAc
# How it was run: as §1
# [26] = target: Fuc(a1-3)[Gal(b1-4)]GlcNAc(b1-2)Man
# How it was run: as §1
# [27] = target: Fuc(a1-3)[Gal(b1-4)]GlcNAc(b1-2)Man(a1-3)[Fuc(a1-3)[Gal(b1-4)]GlcNAc(b1-2)Man(a1-6)]Man(b1-4)GlcNAc(b1-4)GlcNAc
# How it was run: as §1
# [28] = target: Fuc(a1-3)[Gal(b1-4)]GlcNAc(b1-2)Man(a1-3)[Fuc(a1-3)[Gal(b1-4)]GlcNAc(b1-2)Man(a1-6)]Man(b1-4)GlcNAc(b1-4)[Fuc(a1-6)]GlcNAc
# How it was run: as §1
# [29] = target: Fuc(a1-3)[Gal(b1-4)]GlcNAc(b1-3)Gal(b1-3)[Fuc(a1-4)]GlcNAc
# How it was run: as §1
# [30] = target: Fuc(a1-3)[Gal(b1-4)]GlcNAc(b1-3)Gal(b1-4)[Fuc(a1-3)]GlcNAc
# How it was run: as §1
# [31] = target: Fuc(a1-3)[Gal(b1-4)]GlcNAc(b1-3)Gal(b1-4)[Fuc(a1-3)]GlcNAc(b1-3)Gal(b1-4)[Fuc(a1-3)]GlcNAc
# How it was run: as §1
# [32] = target: Fuc(a1-3)[Gal(b1-4)]GlcNAc(b1-3)GalNAc
# How it was run: as §1
# [33] = target: Fuc(a1-3)[Gal(b1-4)]GlcNAc(b1-6)GalNAc
# How it was run: as §1
# [34] = target: Fuc(a1-3)[Gal(b1-4)]GlcNAc(b1-6)[Gal(b1-3)GlcNAc(b1-3)]Gal(b1-4)Glc
# How it was run: as §1
# [35] = target: Fuc(a1-3)[Gal(b1-4)]GlcNAc6S
# How it was run: as §1
# [36] = target: Fuc(a1-3)[Gal3S(b1-4)]Glc
# How it was run: as §1
# [37] = target: Fuc(a1-3)[Gal3S(b1-4)]GlcNAc
# How it was run: as §1
binder,measurement,setting,value
B1,glycan array binding signal (z-score),[1],-0.019
same,glycan array binding signal (z-score),[2],-0.152
same,glycan array binding signal (z-score),[3],-0.172
same,glycan array binding signal (z-score),[4],-0.157
same,glycan array binding signal (z-score),[5],-0.092
same,glycan array binding signal (z-score),[6],0.08
same,glycan array binding signal (z-score),[7],-0.132
same,glycan array binding signal (z-score),[8],-0.208
same,glycan array binding signal (z-score),[9],-0.256
same,glycan array binding signal (z-score),[10],0.121
same,glycan array binding signal (z-score),[11],-0.001
same,glycan array binding signal (z-score),[12],-0.076
same,glycan array binding signal (z-score),[13],-0.269
same,glycan array binding signal (z-score),[14],-0.014
same,glycan array binding signal (z-score),[15],-0.331
same,glycan array binding signal (z-score),[16],0.006
same,glycan array binding signal (z-score),[17],-0.353
same,glycan array binding signal (z-score),[18],-0.178
same,glycan array binding signal (z-score),[19],-0.212
same,glycan array binding signal (z-score),[20],-0.15
same,glycan array binding signal (z-score),[21],0.081
same,glycan array binding signal (z-score),[22],-0.218
same,glycan array binding signal (z-score),[23],-0.278
same,glycan array binding signal (z-score),Fuc(a1-3)GlcNAc,-0.054
same,glycan array binding signal (z-score),[24],0.287
same,glycan array binding signal (z-score),[25],-0.13
same,glycan array binding signal (z-score),[26],-0.134
same,glycan array binding signal (z-score),[27],0.013
same,glycan array binding signal (z-score),[28],3.02
same,glycan array binding signal (z-score),[29],0.143
same,glycan array binding signal (z-score),[30],0.096
same,glycan array binding signal (z-score),[31],-0.224
same,glycan array binding signal (z-score),[32],-0.175
same,glycan array binding signal (z-score),[33],0.302
same,glycan array binding signal (z-score),[34],0.027
same,glycan array binding signal (z-score),[35],-0.117
same,glycan array binding signal (z-score),[36],-0.187
same,glycan array binding signal (z-score),[37],-0.196

# Source: the supplement of paper PMC8728848
